Read counts are not given, so values of variants with three or more changes are uncertain.
B1: LINE1-full (parent)
chain: UACGUAGGUGGUUUUCCCCUGAUAGUGCUAAGGGGGCCUGGAAGUUUGGACUGGGCAGAGCUCAACACAGCGUGGCAAAGUGGCUGUGGCUAGACUGCCUCUCUGGAUUCCUCGUCACUCAGCAGGGCAUCUCUGAGAGAAAUGCC

Variants of: B1
Assay: self-cleavage, relative activity (ratio to wild type); higher = more cleavage; in vitro, sequencing; the parent is a self-cleaving ribozyme
U13G U62G C120A gave a self-cleavage of 0.
U14C A78G U134C C145U gave a self-cleavage of 1.96.
Variant U14C A78G A117U has a self-cleavage of 0.9.
Work on U14C A124G A140G yielded a self-cleavage of 0.41.
In the case of U14C A77G A117G G125A A142G, the self-cleavage is reported as 2.19.
Work on U14C A57U A79G U87A yielded a self-cleavage of 0.19.
For U14C G34A A64G C116U, the self-cleavage was 0.2.
Work on U14C G32C U91A G114A yielded a self-cleavage of 0.54.
U14C A69G U134C U143C showed a self-cleavage of 0.46.
In the case of U14C C38U U119C U143A, the self-cleavage is reported as 1.6.
With U14C U15C U46C the self-cleavage was 0.
Work on U14A A79G U102C A142G yielded a self-cleavage of 0.39.
In the case of U14C U39G A141G, the self-cleavage is reported as 1.37.
With U14C A64U A69U U87C G114A the self-cleavage was 0.05.
For U14C C51A U134G A141G, the self-cleavage was 1.5.
U14C U26C A67G A69G A141G gave a self-cleavage of 0.
In the case of U14C U15A U52C A142C, the self-cleavage is reported as 0.82.
In the case of U14C U47C A69G, the self-cleavage is reported as 0.
Work on U14C A43G U62C G122A U134A yielded a self-cleavage of 0.09.
For U14C A64G A77G A78G A107U A140C, the self-cleavage was 0.
Work on U14C A59U U115G yielded a self-cleavage of 0.77.
U14C A78G U130C showed a self-cleavage of 0.92.
U14C G106A U115C showed a self-cleavage of 1.01.
In the case of U14C U23C U87A, the self-cleavage is reported as 0.16.
Variant U14C G72A A79G has a self-cleavage of 0.59.
U14A A43G A77G gave a self-cleavage of 0.
U14A A57G A64U showed a self-cleavage of 0.23.
Work on U14C U15C A59U A69G yielded a self-cleavage of 0.74.
Work on U14C G54U A117C yielded a self-cleavage of 1.07.
Variant U13G U81C A124G has a self-cleavage of 0.4.
Work on U14A U29C A67G yielded a self-cleavage of 0.
With U14A A65G A136G G144A the self-cleavage was 0.
For U14C A57G U100C G122U G127A, the self-cleavage was 1.43.
Variant U14C U26A C37A A78G U96C has a self-cleavage of 0.06.
With U14A U104C C116U the self-cleavage was 1.31.
With U14C U52C G89U U119C A129G the self-cleavage was 0.23.
Work on U14C G25U U132C yielded a self-cleavage of 1.11.
Work on U14A C18U U39C U45C A57G U143A yielded a self-cleavage of 0.62.
Work on U14C G32A U132C yielded a self-cleavage of 1.31.
In the case of U14C U23C C37G A77U, the self-cleavage is reported as 0.51.
Work on U14C U45C A67G A78G yielded a self-cleavage of 0.
Variant U14C U20C C110U U112C A117G A138G has a self-cleavage of 0.38.
Work on U14C U39C A42G U109C C145A yielded a self-cleavage of 0.
In the case of U14A G48A A69G U134C, the self-cleavage is reported as 0.54.
Variant U14A G36A A50G U87A has a self-cleavage of 0.04.
For U14A U52G A92G A138G, the self-cleavage was 0.
Work on U14A U102C C123A A124U yielded a self-cleavage of 1.41.
For U14C A22G U96A, the self-cleavage was 0.12.
Variant U14C U62A A117G has a self-cleavage of 0.1.
With U14C U20G C146A the self-cleavage was 1.4.
U14C U15C U47A gave a self-cleavage of 2.47.
Variant U14A U85G A140G has a self-cleavage of 0.08.
Variant U14C G36A A129G U143C has a self-cleavage of 1.29.
With U14C A69U U130C the self-cleavage was 0.27.
U14C A42G G54A A94U A141G showed a self-cleavage of 0.
For U14C U39C A94U, the self-cleavage was 0.24.
U14C A77U A107G C123A U132C showed a self-cleavage of 0.68.
Work on U14C U39A A77U U115C A140U yielded a self-cleavage of 0.99.
Work on U14C U29C U81A A136U U143G yielded a self-cleavage of 2.63.
Variant U14C U26C A64U G83U A141G has a self-cleavage of 0.46.
Work on U14C U52G A78G A121U yielded a self-cleavage of 0.89.
U14C A67G U115A A136G gave a self-cleavage of 1.12.
For U14A A22G U39A C116U, the self-cleavage was 0.53.
Work on U14C A65G U96A yielded a self-cleavage of 0.11.
U14C G105A U132C A142C showed a self-cleavage of 1.29.
Variant U14C G48A A77G has a self-cleavage of 2.
Variant U14A G40A A124G has a self-cleavage of 0.46.
With U14C A67U A79G A136G the self-cleavage was 0.12.
Work on U14A U96C A138U yielded a self-cleavage of 0.23.
Variant U14C A59G A78G has a self-cleavage of 0.
In the case of U14C U47G C101A U115C A117C, the self-cleavage is reported as 1.6.
In the case of U14C A24U U47A A64G U81A, the self-cleavage is reported as 0.53.
Work on U14A G32A C63U A64G A69G U85A U100C A136G A140G yielded a self-cleavage of 0.
In the case of U14C U26C A50G, the self-cleavage is reported as 0.48.
For U14C A22G U52C U112A, the self-cleavage was 0.62.
With U14C U26C A138G the self-cleavage was 1.05.
With U14C U45C A79G C84U U87C G89U C98G A124G A129G the self-cleavage was 0.15.
Work on U14C A57G A69G U96C yielded a self-cleavage of 1.84.
For U14C U52A A67U U81G U112A, the self-cleavage was 0.17.
In the case of U14C G58A U102C U115C, the self-cleavage is reported as 0.14.
For U14C U62A U132A, the self-cleavage was 0.09.
Variant U14C A42G U115C has a self-cleavage of 1.18.
With U14C U39A A78U A124U A140G U143C the self-cleavage was 2.84.
